The source of these data is the BET-seq Pho4 binding data (Le et al. 2018).

The list shows a part of the results. The energies were worked out here from pooled read counts, against the library average; single values are noisy.

The target of the experiment is T1, Pho4 (S. cerevisiae) (UniProt P07270).
T1 sequence: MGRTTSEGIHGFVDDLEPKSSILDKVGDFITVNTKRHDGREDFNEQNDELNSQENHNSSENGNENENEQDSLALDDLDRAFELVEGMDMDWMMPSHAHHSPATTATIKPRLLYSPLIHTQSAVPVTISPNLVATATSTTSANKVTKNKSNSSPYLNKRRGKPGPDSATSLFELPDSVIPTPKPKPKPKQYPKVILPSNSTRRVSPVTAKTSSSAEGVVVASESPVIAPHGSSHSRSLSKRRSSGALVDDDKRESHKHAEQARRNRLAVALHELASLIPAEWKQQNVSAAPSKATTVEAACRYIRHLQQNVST
Kind of experiment: relative binding free energy (BET-seq); higher = weaker binding. The note with it: reference: library average.
Regarding TTGTTCACGTGTAGCA, the “relative binding free energy” value worked out at 0.38 kcal/mol.
With AGGGTCACGTGGGAAA the figure was 0.04 kcal/mol.
On to TGATGCACGTGGGATG, for which the “relative binding free energy” value amounted to 0.01 kcal/mol.
Then ACGGGCACGTGTTTGG, with -0.13 kcal/mol; and CTAGACACGTGGTATG, with -0.06 kcal/mol.
GTGATCACGTGGGGTT: the “relative binding free energy” value was -0.04 kcal/mol.
GTCGGCACGTGTAGAG: the “relative binding free energy” value is -0.01 kcal/mol.
Take GTAATCACGTGTGAGT: the “relative binding free energy” value came to 0.14 kcal/mol.
With CGGAACACGTGCGGGT the figure was -0.01 kcal/mol.
With AGGGGCACGTGACGAG, the “relative binding free energy” value was -0.09 kcal/mol.
In the case of CGTGTCACGTGGTCTG, the “relative binding free energy” value was -0.07 kcal/mol.
In the case of GATGGCACGTGCGGTA, the “relative binding free energy” value is -0.07 kcal/mol.
With TATCTCACGTGCTTGG the figure was 0.24 kcal/mol.
Turning to TAGGGCACGTGGTGTC, the “relative binding free energy” value is -0.23 kcal/mol.
With GGACGCACGTGTGCGG the figure was -0.02 kcal/mol; with TTTCGCACGTGCTGGG, -0.1 kcal/mol; with GGTCACACGTGATTTG, 0.25 kcal/mol.
Consider GCTTTCACGTGTGGAA, for which the “relative binding free energy” value was found to be 0.17 kcal/mol.
Turning to TAGTACACGTGTCGTT, the “relative binding free energy” value was found to be 0 kcal/mol.
Consider ATTCGCACGTGTCGGT, for which the “relative binding free energy” value was -0.02 kcal/mol.
Consider TGTCGCACGTGAGTGT, for which the “relative binding free energy” value amounted to 0.05 kcal/mol.
In the case of ATGGTCACGTGATACT, the “relative binding free energy” value came to 0.11 kcal/mol.
Regarding TGTGCCACGTGATGGA, the “relative binding free energy” value was determined as 0 kcal/mol.
For the sequence TGTCGCACGTGAGCTT, the “relative binding free energy” value amounted to 0.32 kcal/mol.
Regarding TGTAGCACGTGGTTGG, the “relative binding free energy” value is -0.07 kcal/mol.
Then TCGAGCACGTGTTAGG, with -0.2 kcal/mol.
Take GGGAACACGTGTGTGG: the “relative binding free energy” value came to 0.08 kcal/mol.
As to AAGGCCACGTGGTGGA, the “relative binding free energy” value was -0.11 kcal/mol.
Regarding TGTATCACGTGTATGA, the “relative binding free energy” value is 0.1 kcal/mol.
Then GGGGACACGTGTGTGA, with 0.06 kcal/mol.
For GGATGCACGTGATTAG, the “relative binding free energy” value amounted to 0.12 kcal/mol.
Turning to TTAATCACGTGCCGGG, the “relative binding free energy” value turned out to be 0.17 kcal/mol.
Regarding GATGACACGTGGTGTG, the “relative binding free energy” value was -0.03 kcal/mol.
Then GGCGGCACGTGACGCG, with 0.18 kcal/mol.
With TAGCTCACGTGTGTTA, the “relative binding free energy” value was determined as 0.28 kcal/mol.
As for TTCTGCACGTGGCGAT, the “relative binding free energy” value is -0.01 kcal/mol.
As to TTTAACACGTGTCAGG, the “relative binding free energy” value is 0.07 kcal/mol.
Turning to GTTTGCACGTGTGATC, the “relative binding free energy” value is 0.18 kcal/mol.
Turning to GTTATCACGTGCATTT, the “relative binding free energy” value amounted to 0.15 kcal/mol.
Regarding AGTGTCACGTGAAGAG, the “relative binding free energy” value came out at 0.15 kcal/mol.
Take TTTCCCACGTGGGGTG: the “relative binding free energy” value was -0.15 kcal/mol.
With TAAATCACGTGCAGGG the figure was 0.13 kcal/mol; with TATAGCACGTGTAGAA, 0.1 kcal/mol; with CTGGGCACGTGGTGCG, -0.32 kcal/mol.
In the case of AGTTGCACGTGGAGTC, the “relative binding free energy” value was found to be 0.15 kcal/mol.
With GGGATCACGTGTTGTT, the “relative binding free energy” value came to 0.26 kcal/mol.
With GATTGCACGTGGTAGG, the “relative binding free energy” value was found to be 0.07 kcal/mol.
Consider GGTGCCACGTGTCGGA, for which the “relative binding free energy” value worked out at 0.02 kcal/mol.
Then ATCTTCACGTGGGAAA, with 0.29 kcal/mol; and TCCAGCACGTGGGGGT, with -0.22 kcal/mol.
On to GGTCCCACGTGTGTTT, for which the “relative binding free energy” value stood at 0.12 kcal/mol.
For the sequence TTAAGCACGTGCGTAT, the “relative binding free energy” value is -0.15 kcal/mol.
For the sequence TGGACCACGTGGTAGT, the “relative binding free energy” value is -0.14 kcal/mol.
Turning to CTTGGCACGTGATAGT, the “relative binding free energy” value was 0.02 kcal/mol.
Turning to GTTGTCACGTGGTAAC, the “relative binding free energy” value stood at 0.14 kcal/mol.
Take CTTTGCACGTGTTGGT: the “relative binding free energy” value stood at 0.04 kcal/mol.
For TCGGGCACGTGGACGG, the “relative binding free energy” value came to 0.02 kcal/mol.
With GTTCACACGTGGTGGA, the “relative binding free energy” value came out at 0.22 kcal/mol.
For CAGTTCACGTGAGGTA, the “relative binding free energy” value amounted to 0.36 kcal/mol.
With GGCTCCACGTGAGGGT, the “relative binding free energy” value came to 0.25 kcal/mol.
In the case of TTTTACACGTGCTTCT, the “relative binding free energy” value is 0.02 kcal/mol.
With GAGTGCACGTGGTGTT, the “relative binding free energy” value is -0.04 kcal/mol.
With ATAGGCACGTGCTTAT, the “relative binding free energy” value is -0.06 kcal/mol.
On to TTTAGCACGTGGCTGG, for which the “relative binding free energy” value was -0.13 kcal/mol.
For the sequence GTGTGCACGTGATGTT, the “relative binding free energy” value is 0.19 kcal/mol.
In the case of GCGGACACGTGGGAAG, the “relative binding free energy” value is -0.02 kcal/mol.
As to AGTGACACGTGTATTG, the “relative binding free energy” value is 0 kcal/mol.
As to TTGTGCACGTGAGCAT, the “relative binding free energy” value was 0.15 kcal/mol.
With TTTTGCACGTGGATCG, the “relative binding free energy” value was 0.02 kcal/mol.
Consider AAGAGCACGTGGGGCT, for which the “relative binding free energy” value is -0.22 kcal/mol.
With TTATTCACGTGCGTCT, the “relative binding free energy” value is 0.14 kcal/mol.
Then TTGGTCACGTGATGGA, with 0.32 kcal/mol; and ATTACCACGTGGAGGT, with -0.03 kcal/mol; and GGATACACGTGGGTGG, with 0.07 kcal/mol.
Regarding TAAATCACGTGGTGGG, the “relative binding free energy” value turned out to be 0.16 kcal/mol.
With TGCTTCACGTGGTTCG, the “relative binding free energy” value is 0.24 kcal/mol.
On to TTTAACACGTGTGGGT, for which the “relative binding free energy” value is 0.11 kcal/mol.
GGGTTCACGTGTGTCG: the “relative binding free energy” value was determined as 0.4 kcal/mol.
On to CTGACCACGTGGGTGG, for which the “relative binding free energy” value was -0.2 kcal/mol.
Regarding ATAGACACGTGTATTA, the “relative binding free energy” value was -0.01 kcal/mol.
Then CTAGGCACGTGAGTTT, with 0.07 kcal/mol; and GGCGTCACGTGTATAG, with 0.25 kcal/mol; and AGGACCACGTGTGTTG, with -0.03 kcal/mol.
TGTTGCACGTGGAAGA: the “relative binding free energy” value amounted to 0.1 kcal/mol.
On to TTAGCCACGTGAGGAT, for which the “relative binding free energy” value came out at 0.11 kcal/mol.
With TGGATCACGTGAAGGT, the “relative binding free energy” value was 0.37 kcal/mol.
On to GTACTCACGTGGGATG, for which the “relative binding free energy” value was determined as 0.11 kcal/mol.
For the sequence TGTCACACGTGTGAAG, the “relative binding free energy” value is 0.18 kcal/mol.
For TTAGGCACGTGTAATC, the “relative binding free energy” value worked out at 0.13 kcal/mol.
For the sequence TGGGTCACGTGCTATA, the “relative binding free energy” value was 0.09 kcal/mol.
With GTCATCACGTGGAGGT the figure was -0.01 kcal/mol; with TACAGCACGTGGTGTG, -0.29 kcal/mol.
Then GGTATCACGTGGAGGG, with 0.11 kcal/mol; and TGTGACACGTGATTTT, with 0.21 kcal/mol; and GATGTCACGTGTTACT, with 0.32 kcal/mol.
As for TTTTACACGTGTGTTG, the “relative binding free energy” value came to 0.17 kcal/mol.
As to GGTGCCACGTGGGGCC, the “relative binding free energy” value was -0.21 kcal/mol.
Consider TCGTTCACGTGTATGG, for which the “relative binding free energy” value is 0.34 kcal/mol.
Turning to AAGTGCACGTGGCGGA, the “relative binding free energy” value stood at 0.03 kcal/mol.
For the sequence AGTAGCACGTGATTGT, the “relative binding free energy” value is -0.01 kcal/mol.
With TGTCGCACGTGGGGGA, the “relative binding free energy” value is -0.2 kcal/mol.
On to GGGTGCACGTGCTGTT, for which the “relative binding free energy” value is -0.13 kcal/mol.
With TGCGTCACGTGGGGTT, the “relative binding free energy” value is -0.03 kcal/mol.
Then TCGTGCACGTGAGATT, with 0.18 kcal/mol; and AAGTACACGTGACTGT, with 0.38 kcal/mol; and TTATGCACGTGAGTGG, with 0.15 kcal/mol.
Regarding TATATCACGTGCGTAT, the “relative binding free energy” value is 0.05 kcal/mol.
In the case of GTAGGCACGTGTGGGC, the “relative binding free energy” value amounted to 0.13 kcal/mol.
For ACATTCACGTGGTGGT, the “relative binding free energy” value is 0.16 kcal/mol.
In the case of AAAGTCACGTGGTTAT, the “relative binding free energy” value was -0.04 kcal/mol.
TATGTCACGTGGAGGG: the “relative binding free energy” value was found to be 0.09 kcal/mol.
Turning to AATTACACGTGATATT, the “relative binding free energy” value is 0.09 kcal/mol.
Turning to AGCTGCACGTGTATTT, the “relative binding free energy” value was found to be 0.09 kcal/mol.
As for TTACACACGTGTGTGG, the “relative binding free energy” value worked out at 0.02 kcal/mol.
For GATGTCACGTGGTGAA, the “relative binding free energy” value is 0.21 kcal/mol.
